Measured values taken from paper PMC4219380.
Results are given in words; binding and its absence hold for the method and conditions named. For some of these results: Binding seen in cells or lysates may run through a third protein. Some entries that bind do so weakly or less than the wild type. For some of these results: Tags and fused reporters may be left off the sequences shown.

The chains behind the UniProt entries cited, without tags or fusion partners.
UniProt Q9FDW1: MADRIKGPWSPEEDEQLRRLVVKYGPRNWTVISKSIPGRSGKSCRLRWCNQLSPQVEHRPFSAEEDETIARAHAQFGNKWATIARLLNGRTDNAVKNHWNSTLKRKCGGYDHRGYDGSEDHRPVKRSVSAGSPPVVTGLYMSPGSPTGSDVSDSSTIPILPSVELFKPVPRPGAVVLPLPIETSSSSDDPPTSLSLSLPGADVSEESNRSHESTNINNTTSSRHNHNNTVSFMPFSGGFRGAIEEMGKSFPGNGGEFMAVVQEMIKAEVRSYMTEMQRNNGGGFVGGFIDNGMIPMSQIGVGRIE
UniProt Q9SN12: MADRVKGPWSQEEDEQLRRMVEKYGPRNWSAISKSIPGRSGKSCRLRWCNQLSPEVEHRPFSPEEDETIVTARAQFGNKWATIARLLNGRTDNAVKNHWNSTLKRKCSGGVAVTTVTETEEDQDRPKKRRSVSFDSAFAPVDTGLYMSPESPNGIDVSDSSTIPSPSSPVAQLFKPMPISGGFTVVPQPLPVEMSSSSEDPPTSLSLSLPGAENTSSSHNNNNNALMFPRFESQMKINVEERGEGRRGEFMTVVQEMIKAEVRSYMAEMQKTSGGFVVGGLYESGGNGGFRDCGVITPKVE

Assays:
[1] = target: AtMYBR1/AtMYB44 full length fused to the GAL4 DNA-binding domain (pGBT9-MYBR1) (Arabidopsis thaliana) (UniProt Q9FDW1); experiment: two-hybrid; individual clones: pGBT9-MYBR1 or pGBT9-MYBR2 in yeast Y2H Gold mated 1 d at 30°C with pGADT7 fusions in yeast Y187; screened on DDO, DDO/X/A and QDO/X/A; also with phytohormones and inhibitors of auxin signaling (PCIB) and transport (TIBA, NPA), which did not affect the interactions
[2] = target: AtMYBR2/MYB77 full length fused to the GAL4 DNA-binding domain (pGBT9-MYBR2) (Arabidopsis thaliana) (UniProt Q9SN12); experiment: as above
[3] = target: AtMYBR1/AtMYB44 full length fused to the GAL4 DNA-binding domain (pGBT9-MYBR1) (Arabidopsis thaliana), Q9FDW1; experiment: as above; conditions: remark: other sources report otherwise
[4] = target: YFP175-end aa -MYBR2 (Arabidopsis thaliana) (UniProt Q9SN12); experiment: split reporter; BiFC in N. benthamiana leaf epidermal cells; eYFP reconstituted from YFP1-174 and YFP175-end fusions
[5] = target: YFP175-end aa -MYBR1 (Arabidopsis thaliana) (UniProt Q9FDW1); experiment: as above
[6] = target: AtMYBR2/MYB77 full length fused to the GAL4 DNA-binding domain (pGBT9-MYBR2) (Arabidopsis thaliana), Q9SN12; experiment: two-hybrid; individual clones: pGBT9-MYBR1 or pGBT9-MYBR2 in yeast Y2H Gold mated 1 d at 30°C with pGADT7 fusions in yeast Y187; screened on DDO, DDO/X/A and QDO/X/A; also with phytohormones and inhibitors of auxin signaling (PCIB) and transport (TIBA, NPA), which did not affect the interactions; conditions: remark: other sources report otherwise

Binder | binding [1] | binding [2] | further results
PYL10 fused to the GAL4 activation domain (pGADT7) (receptor, UniProt Q8H1R0 1-183) MNGDETKKVESEYIKKHHRHELVESQCSSTLVKHIKAPLHLVWSIVRRFDEPQKYKPFISRCVVQGKKLEVGSVREVDLKSGLPATKSTEVLEILDDNEHILGIRIVGGDHRLKNYSSTISLHSETIDGKTGTLAIESFVVDVPEGNTKEETCFFVEALIQCNLNSLADVTERLQAESMEKKI | no binding | no binding | 
PYL7 fused to the GAL4 activation domain (pGADT7) (receptor, UniProt Q1ECF1 1-211) MEMIGGDDTDTEMYGALVTAQSLRLRHLHHCRENQCTSVLVKYIQAPVHLVWSLVRRFDQPQKYKPFISRCTVNGDPEIGCLREVNVKSGLPATTSTERLEQLDDEEHILGINIIGGDHRLKNYSSILTVHPEMIDGRSGTMVMESFVVDVPQGNTKDDTCYFVESLIKCNLKSLACVSERLAAQDITNSIATFCNASNGYREKNHTETNL |  | no binding | 
PYL7 fused to the GAL4 activation domain (pGADT7), Q1ECF1 1-211 (receptor) MEMIGGDDTDTEMYGALVTAQSLRLRHLHHCRENQCTSVLVKYIQAPVHLVWSLVRRFDQPQKYKPFISRCTVNGDPEIGCLREVNVKSGLPATTSTERLEQLDDEEHILGINIIGGDHRLKNYSSILTVHPEMIDGRSGTMVMESFVVDVPQGNTKDDTCYFVESLIKCNLKSLACVSERLAAQDITNSIATFCNASNGYREKNHTETNL |  |  | binding [3]: no binding
PYL5 fused to the GAL4 activation domain (pGADT7) (receptor, UniProt Q9FLB1 1-203) MRSPVQLQHGSDATNGFHTLQPHDQTDGPIKRVCLTRGMHVPEHVAMHHTHDVGPDQCCSSVVQMIHAPPESVWALVRRFDNPKVYKNFIRQCRIVQGDGLHVGDLREVMVVSGLPAVSSTERLEILDEERHVISFSVVGGDHRLKNYRSVTTLHASDDEGTVVVESYIVDVPPGNTEEETLSFVDTIVRCNLQSLARSTNRQ | no binding | no binding | 
YFP1-174 aa -PYL8 (receptor, UniProt Q9FGM1 1-188) MEANGIENLTNPNQEREFIRRHHKHELVDNQCSSTLVKHINAPVHIVWSLVRRFDQPQKYKPFISRCVVKGNMEIGTVREVDVKSGLPATRSTERLELLDDNEHILSIRIVGGDHRLKNYSSIISLHPETIEGRIGTLVIESFVVDVPEGNTKDETCYFVEALIKCNLKSLADISERLAVQDTTESRV |  |  | binding [4]: binds; binding [5]: binds
PYL9 fused to the GAL4 activation domain (pGADT7), Q84MC7 1-187 (receptor) MMDGVEGGTAMYGGLETVQYVRTHHQHLCRENQCTSALVKHIKAPLHLVWSLVRRFDQPQKYKPFVSRCTVIGDPEIGSLREVNVKSGLPATTSTERLELLDDEEHILGIKIIGGDHRLKNYSSILTVHPEIIEGRAGTMVIESFVVDVPQGNTKDETCYFVEALIRCNLKSLADVSERLASQDITQ |  |  | binding [6]: no binding; binding [3]: no binding
PYL2 fused to the GAL4 activation domain (pGADT7) (receptor, UniProt O80992 1-190) MSSSPAVKGLTDEEQKTLEPVIKTYHQFEPDPTTCTSLITQRIHAPASVVWPLIRRFDNPERYKHFVKRCRLISGDGDVGSVREVTVISGLPASTSTERLEFVDDDHRVLSFRVVGGEHRLKNYKSVTSVNEFLNQDSGKVYTVVLESYTVDIPEGNTEEDTKMFVDTVVKLNLQKLGVAATSAPMHDDE | no binding | no binding | 
PYL4 fused to the GAL4 activation domain (pGADT7) (receptor, UniProt O80920 1-207) MLAVHRPSSAVSDGDSVQIPMMIASFQKRFPSLSRDSTAARFHTHEVGPNQCCSAVIQEISAPISTVWSVVRRFDNPQAYKHFLKSCSVIGGDGDNVGSLRQVHVVSGLPAASSTERLDILDDERHVISFSVVGGDHRLSNYRSVTTLHPSPISGTVVVESYVVDVPPGNTKEETCDFVDVIVRCNLQSLAKIAENTAAESKKKMSL | no binding | no binding | 
PYL3 fused to the GAL4 activation domain (pGADT7) (receptor, UniProt Q9SSM7 1-209) MNLAPIHDPSSSSTTTTSSSTPYGLTKDEFSTLDSIIRTHHTFPRSPNTCTSLIAHRVDAPAHAIWRFVRDFANPNKYKHFIKSCTIRVNGNGIKEIKVGTIREVSVVSGLPASTSVEILEVLDEEKRILSFRVLGGEHRLNNYRSVTSVNEFVVLEKDKKKRVYSVVLESYIVDIPQGNTEEDTRMFVDTVVKSNLQNLAVISTASPT | no binding | no binding | 
PYL6 fused to the GAL4 activation domain (pGADT7) (receptor, UniProt Q8S8E3 1-215) MPTSIQFQRSSTAAEAANATVRNYPHHHQKQVQKVSLTRGMADVPEHVELSHTHVVGPSQCFSVVVQDVEAPVSTVWSILSRFEHPQAYKHFVKSCHVVIGDGREVGSVREVRVVSGLPAAFSLERLEIMDDDRHVISFSVVGGDHRLMNYKSVTTVHESEEDSDGKKRTRVVESYVVDVPAGNDKEETCSFADTIVRCNLQSLAKLAENTSKFS | no binding | no binding | 
INNER NO OUTER (INO) fused to the GAL4 activation domain (protein, UniProt Q9LDT3 1-231) MTKLPNMTTTLNHLFDLPGQICHVQCGFCTTILLVSVPFTSLSMVVTVRCGHCTSLLSVNLMKASFIPLHLLASLSHLDETGKEEVAATDGVEEEAWKVNQEKENSPTTLVSSSDNEDEDVSRVYQVVNKPPEKRQRAPSAYNCFIKEEIRRLKAQNPSMAHKEAFSLAAKNWAHFPPAHNKRAASDQCFCEEDNNAILPCNVFEDHEESNNGFRERKAQRHSIWGKSPFE | binds | no binding | 

Further lines, with some results ahead:

binding [1] | binding [2] | Binder | further results
no binding | no binding | PYL13 fused to the GAL4 activation domain (pGADT7) (receptor, UniProt Q9SN51 1-164) MESSKQKRCRSSVVETIEAPLPLVWSILRSFDKPQAYQRFVKSCTMRSGGGGGKGGEGKGSVRDVTLVSGFPADFSTERLEELDDESHVMVVSIIGGNHRLVNYKSKTKVVASPEDMAKKTVVVESYVVDVPEGTSEEDTIFFVDNIIRYNLTSLAKLTKKMMK | 
binds | binds | PYR1-LIKE8 (PYL8) fused to the GAL4 activation domain (PYL8-pGADT7) (receptor, UniProt Q9FGM1 1-188) MEANGIENLTNPNQEREFIRRHHKHELVDNQCSSTLVKHINAPVHIVWSLVRRFDQPQKYKPFISRCVVKGNMEIGTVREVDVKSGLPATRSTERLELLDDNEHILSIRIVGGDHRLKNYSSIISLHPETIEGRIGTLVIESFVVDVPEGNTKDETCYFVEALIKCNLKSLADISERLAVQDTTESRV | 
no binding | no binding | PYL11 fused to the GAL4 activation domain (pGADT7) (receptor, UniProt Q9FJ50 1-161) METSQKYHTCGSTLVQTIDAPLSLVWSILRRFDNPQAYKQFVKTCNLSSGDGGEGSVREVTVVSGLPAEFSRERLDELDDESHVMMISIIGGDHRLVNYRSKTMAFVAADTEEKTVVVESYVVDVPEGNSEEETTSFADTIVGFNLKSLAKLSERVAHLKL | 
no binding | no binding | PYL12 fused to the GAL4 activation domain (pGADT7) (receptor, UniProt Q9FJ49 1-159) MKTSQEQHVCGSTVVQTINAPLPLVWSILRRFDNPKTFKHFVKTCKLRSGDGGEGSVREVTVVSDLPASFSLERLDELDDESHVMVISIIGGDHRLVNYQSKTTVFVAAEEEKTVVVESYVVDVPEGNTEEETTLFADTIVGCNLRSLAKLSEKMMELT | 
